Source: the RNAGym collection of RNA variant scans (doi:10.7554/elife.90254)
The source gives no read counts; variants with many changes may rest on few reads.

B1: LINE1-mini (parent)
chain: GGCAGAGCUCAACACAGCGUGGCAAAGUGGCUGUGGCUAGACUGCC

Variants of: B1
Experiment: self-cleavage, relative activity (ratio to wild type); higher = more cleavage; in vitro, sequencing; the parent is a self-cleaving ribozyme

For GGCAGACCUCAAUACAGCGGGGCAAAGUGCUUGUGGCUAGACUGCC [G7C C13U U20G G30C C31U], which self-cleavage is on record?
The self-cleavage was 0.01.

For GGCAGACCUCAACAACGCGUGGCAAAUUGGCUGUUGCUAGACUGCC [G7C C15A A16C G27U G35U], which self-cleavage is on record?
The self-cleavage was 0.05.

With GGCAGACCUCAACAAAGUGUGGCAAGGUGGCAGUGGCUCGACUGCC [G7C C15A C18U A26G U32A A39C] as the variant, how does the self-cleavage read?
The self-cleavage was 0.06.

With GGCAGACCUCAACAAACCGUGGCAAAGUGGCUGUGCCUAUACUGCC [G7C C15A G17C G36C G40U] as the variant, how does the self-cleavage read?
The self-cleavage was 0.07.

With GGCAGACCUCAACAAAUCGUGGCAAAGUGCCUGUGGCUAGACCGCC [G7C C15A G17U G30C U43C] as the variant, how does the self-cleavage read?
The self-cleavage was 0.03.

Which self-cleavage does the source give for GGCAGACCUCAACAAAGCGAGGCAAAGUAGCUGUCGCUAGACUACC [G7C C15A U20A G29A G35C G44A] here?
The self-cleavage was 0.02.

With GGCAGACCUCAACAGAGCGUGCCAAUGUGGCUGUGGAUAGACUGCC [G7C C15G G22C A26U C37A] as the variant, how does the self-cleavage read?
Its self-cleavage is 0.05.

With GGCAGACCUCAACAGAGCGGGGCAAAGUGGCUGUGGCUAUACUGCC [G7C C15G U20G G40U] as the variant, how does the self-cleavage read?
Its self-cleavage is 0.01.

With GGCAGACCUCAACAUAGCGUGGCAAAGUGACUGUGGCUAGAGUGCU [G7C C15U G30A C42G C46U] as the variant, how does the self-cleavage read?
The self-cleavage was 0.01.

For GGCAGACCUCAACACAGAGUGGCAAUGUGGGUGUGGCUAGACUGCC [G7C C18A A26U C31G], which self-cleavage is on record?
The self-cleavage was 0.03.

For GGCAGACCUCAACACAGACUGGGCAAGUGACUGUGGCUAGACUGGC [G7C C18A G19C C23G A24C G30A C45G], which self-cleavage is on record?
The self-cleavage was 0.1.

Which self-cleavage does the source give for GGCAGACCUCAACACAGAGUCGCAAAGAGGCUGUGGCUACACUGCC [G7C C18A G21C U28A G40C] here?
Its self-cleavage is 0.12.

With GGCAGACCUCAACACAGGGUGGCAAAGUGGUUGUGGCUAGACUGCC [G7C C18G C31U] as the variant, how does the self-cleavage read?
The self-cleavage was 0.

With GGCAGACCUCAACACAGGCUGGCAUAGUGGCUGUGGCUAGAAUGCC [G7C C18G G19C A25U C42A] as the variant, how does the self-cleavage read?
Its self-cleavage is 0.03.

With GGCAGACCUCAACACAGGGUGGCAAAGUGCCUGUGGCUAGACUUGC [G7C C18G G30C G44U C45G] as the variant, how does the self-cleavage read?
Its self-cleavage is 0.05.

With GGCAGACCUCAACACAGCGUGGAAAAGUGGCUGUGGAAAGAUUGCC [G7C C23A C37A U38A C42U] as the variant, how does the self-cleavage read?
The self-cleavage was 0.

With GGCAGACCUCAACACAGCGUGGGAAAGUGGCUGUGGAUAGACUGCC [G7C C23G C37A] as the variant, how does the self-cleavage read?
The self-cleavage was 0.03.

For GGCAGACCUCAACACAGCGUGGGAAAGUGGCUGAGGCUAGACUGCU [G7C C23G U34A C46U], which self-cleavage is on record?
The self-cleavage was 0.05.

For GGCAGACCUCAACACAGCGUGGUAAAGUGGCUGUGGCUAGGCUGCC [G7C C23U A41G], which self-cleavage is on record?
Its self-cleavage is 0.01.

With GGCAGACCUCAACACAGCGUGGCAAAGUGGAUGUGGCUAGAUUGCC [G7C C31A C42U] as the variant, how does the self-cleavage read?
Its self-cleavage is 0.05.

Which self-cleavage does the source give for GGCAGACCUCAACACAGCGUGGCAAAGUGGUUAUGUCUAGACUGGC [G7C C31U G33A G36U C45G] here?
Its self-cleavage is 0.

With GGCAGACCUCAACACAGCGUGGCAAAGUGGUUGUGCCUAGACUGCC [G7C C31U G36C] as the variant, how does the self-cleavage read?
Its self-cleavage is 0.06.

Which self-cleavage does the source give for GGCAGACCUCAACACAGCGUGGCAAAGUGGCUGUGGAUAGACUGCA [G7C C37A C46A] here?
The self-cleavage was 0.13.

Which self-cleavage does the source give for GGCAGACCUCAACACAGCGUGGCAAAGUGGCUGUGGUUAAACUGCC [G7C C37U G40A] here?
The self-cleavage was 0.03.

Which self-cleavage does the source give for GGCAGACCUCAACACAGCGUGGCAAAGUGGCUGUGGCUAGAUUGUC [G7C C42U C45U] here?
The self-cleavage was 0.09.

For GGCAGACCUCAACACAGCGUGGCAAAGUGGCUGUGGCUAGACUGGU [G7C C45G C46U], which self-cleavage is on record?
The self-cleavage was 0.09.

With GGCAGACCUCAACACACAGUGCCAAAGUGGCUGUGGCUAGACUGCC [G7C G17C C18A G22C] as the variant, how does the self-cleavage read?
The self-cleavage was 0.04.

With GGCAGACCUCAACACAUCGUGGCAAAGUGGCAGAGGCUAGACUGCC [G7C G17U U32A U34A] as the variant, how does the self-cleavage read?
The self-cleavage was 0.02.

For GGCAGACCUCAACACAGCCUGGCAAAGUGGCUGAGGCUAGACUGCC [G7C G19C U34A], which self-cleavage is on record?
Its self-cleavage is 0.03.

Which self-cleavage does the source give for GGCAGACCUCAACACAGCGUAGCAAAGUGGGAGAGGCUAGACUGCC [G7C G21A C31G U32A U34A] here?
The self-cleavage was 0.01.

Which self-cleavage does the source give for GGCAGACCUCAACACAGCGUAGCAAAUUGGCUGUGGCUAUACUGCC [G7C G21A G27U G40U] here?
Its self-cleavage is 0.12.

Which self-cleavage does the source give for GGCAGACCUCAACACAGCGUCGCAAAGUGGCUGUGGAUAGACUGCC [G7C G21C C37A] here?
Its self-cleavage is 0.18.

For GGCAGACCUCAACACAGCGUUGCAACGUGGCUUUGGCUAGACUGCC [G7C G21U A26C G33U], which self-cleavage is on record?
The self-cleavage was 0.04.

For GGCAGACCUCAACACAGCGUUGCAAAGUGGCUCUGGCUAGACUGCC [G7C G21U G33C], which self-cleavage is on record?
Its self-cleavage is 0.04.

For GGCAGACCUCAACACAGCGUGACAAAGUGGCUGUGGCUUGACUGCC [G7C G22A A39U], which self-cleavage is on record?
Its self-cleavage is 0.08.

Which self-cleavage does the source give for GGCAGACCUCAACACAGCGUGACAAACUGGCUAUGGCUAGACAGCC [G7C G22A G27C G33A U43A] here?
Its self-cleavage is 0.05.

Which self-cleavage does the source give for GGCAGACCUCAACACAGCGUGACAAAGUGGCUGUGGCUAGACUUCC [G7C G22A G44U] here?
The self-cleavage was 0.07.

With GGCAGACCUCAACACAGCGUGCCAAAGUGGCUGUGGCUCGACCGCC [G7C G22C A39C U43C] as the variant, how does the self-cleavage read?
The self-cleavage was 0.03.

For GGCAGACCUCAACACAGCGUGUCAAAGUGCCUGUGGCUAUACUGCC [G7C G22U G30C G40U], which self-cleavage is on record?
Its self-cleavage is 0.84.

For GGCAGACCUCAACACAGCGUGUCAAAGUGGCUGUGGCUACACUGCA [G7C G22U G40C C46A], which self-cleavage is on record?
The self-cleavage was 0.08.

Which self-cleavage does the source give for GGCAGACCUCAACACAGCGUGGCAAAAUGGCUGUGGCUAGACUCCC [G7C G27A G44C] here?
The self-cleavage was 0.13.

Which self-cleavage does the source give for GGCAGACCUCAACACAGCGUGGCAAAGUAGCUGUGGCUAGAUUGCC [G7C G29A C42U] here?
The self-cleavage was 0.03.

For GGCAGACCUCAACACAGCGUGGCAAAGUCGCUGUGGCUAGCCUCCC [G7C G29C A41C G44C], which self-cleavage is on record?
Its self-cleavage is 0.04.

Which self-cleavage does the source give for GGCAGACCUCAACACAGCGUGGCAAAGUGACUGUAGCUAGACUGCC [G7C G30A G35A] here?
The self-cleavage was 0.11.

Which self-cleavage does the source give for GGCAGACCUCAACACAGCGUGGCAAAGUGCCUGUGGCUAAACUGCC [G7C G30C G40A] here?
Its self-cleavage is 0.06.

For GGCAGACCUCAACACAGCGUGGCAAAGUGCCUGUGGCUACACUGCU [G7C G30C G40C C46U], which self-cleavage is on record?
Its self-cleavage is 0.07.

Which self-cleavage does the source give for GGCAGACCUCAACACAGCGUGGCAAAGUGUUUGUGGCUAGACUGCC [G7C G30U C31U] here?
Its self-cleavage is 0.02.

Which self-cleavage does the source give for GGCAGACCUCAACACAGCGUGGCAAAGUGUCUGUGGCUAGACUGCG [G7C G30U C46G] here?
The self-cleavage was 0.

Which self-cleavage does the source give for GGCAGACCUCAACACAGCGUGGCAAAGUGGCUAUGGGUAGACUGCC [G7C G33A C37G] here?
The self-cleavage was 0.03.

With GGCAGACCUCAACACAGCGUGGCAAAGUGGCUUUGGCUUGACUGCC [G7C G33U A39U] as the variant, how does the self-cleavage read?
The self-cleavage was 0.06.

Which self-cleavage does the source give for GGCAGACCUCAACACAGCGUGGCAAAGUGGCUUUGGCUAGACUACC [G7C G33U G44A] here?
Its self-cleavage is 0.11.

With GGCAGACCUCAACACAGCGUGGCAAAGUGGCUGUAGCCAGACUGCC [G7C G35A U38C] as the variant, how does the self-cleavage read?
Its self-cleavage is 0.1.

For GGCAGACCUCAACACAGCGUGGCAAAGUGGCUGUCGCUUGACUGCC [G7C G35C A39U], which self-cleavage is on record?
Its self-cleavage is 0.06.

With GGCAGACCUCAACACAGCGUGGCAAAGUGGCUGUUACUAGACUGCC [G7C G35U G36A] as the variant, how does the self-cleavage read?
Its self-cleavage is 0.13.

For GGCAGACCUCAACACAGCGUGGCAAAGUGGCUGUGGCUAGACUUGC [G7C G44U C45G], which self-cleavage is on record?
Its self-cleavage is 0.

With GGCAGACCACAACCCGGCGUGGCAAAGUGGCGGUGGCUAGACUGCC [G7C U9A A14C A16G U32G] as the variant, how does the self-cleavage read?
The self-cleavage was 0.08.
